T1: Mouse GLP-1R (mouse, UniProt O35659 22-463)
T1 sequence (looked up): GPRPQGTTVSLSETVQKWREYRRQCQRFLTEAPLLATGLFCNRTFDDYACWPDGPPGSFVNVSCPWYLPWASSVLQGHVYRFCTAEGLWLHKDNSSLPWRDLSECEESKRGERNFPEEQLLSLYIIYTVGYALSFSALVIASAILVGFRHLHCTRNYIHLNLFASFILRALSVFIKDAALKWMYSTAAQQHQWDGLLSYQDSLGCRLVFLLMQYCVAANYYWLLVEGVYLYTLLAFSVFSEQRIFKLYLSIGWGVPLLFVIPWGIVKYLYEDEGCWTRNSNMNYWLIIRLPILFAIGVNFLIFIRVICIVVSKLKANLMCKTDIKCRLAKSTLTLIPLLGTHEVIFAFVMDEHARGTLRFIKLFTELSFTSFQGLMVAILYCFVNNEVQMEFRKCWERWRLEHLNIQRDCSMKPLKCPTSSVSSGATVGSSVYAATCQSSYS


Experiments:
Experiment in all cases: cell-based or functional assay
[1] = biological target: T2, human FGFR1c together with human beta-Klotho (KLB) (human, UniProt P11362; Q86Z14)
[2] = biological target: human glucagon-like peptide-1 (GLP-1) receptor (human, UniProt P43220)
Monkey GLP-1R = Monkey GLP-1R (monkey)
Mouse GLP-1R = biological target: T1, Mouse GLP-1R
[3] = biological target: T2, human FGFR1c together with human …; remark: listed apart in the source

Binder	pERK ICW EC50 [1] [nmol/L]	HTRF cAMP EC50 [2] [pM]	HTRF cAMP EC50 (Monkey GLP-1R) [pM]	HTRF cAMP EC50 (Mouse GLP-1R) [pM]	pFGFR ICW EC50 [3] [nmol/L]
GLP-1RA/FGF21 Fc fusion protein SEQ ID NO: 20 (Fc fusion) HGEGTFTSDLSKQLEEERVQEFIEWLKAGGPSSGAPPPSGGGGGGGSGGGGSGGGGSA[… human IgG4 Fc with changes …]GGGSGSAHPIPDSSPLLQFGGQVRQRYLYTDDACQTEAHLEIREDGTVGGAADQSPESLLQLKALKPGVIQILGVKTSRFLCQRPDGALYGSLHFDPEACSFRELLLEDGYNVYQSEAHGLPLHLPGCKSPHRDPAPRGPARFLPLPGLPPAPPEPPGILAPQPPDVGSSDPLSMVYPSQGRSPSYAS	10.4	9.49	9.86	1.97	42.9
GLP-1RA/FGF21 Fc fusion protein SEQ ID NO: 24 (Fc fusion) HGEGTFTSDLSIQLEEEAVQEFIEWLLATGPSSGAPPPSGGGGGGGSGGGGSGGGGSA[… human IgG4 Fc with changes …]GGGSGSAHPIPDSSPLLQFGGQVRQRYLYTDDACQTEAHLEIREDGTVGGAADQSPESLLQLKALKPGVIQILGVKTSRFLCQRPDGALYGSLHFDPEACSFRELLLEDGYNVYQSEAHGLPLHLPGCKSPHRDPAPRGPARFLPLPGLPPAPPEPPGILAPQPPDVGSSDPLSMVYPSQGRSPSYAS	8.39	48.8	43.5	2.66	25.3
GLP-1RA/FGF21 Fc fusion protein SEQ ID NO: 23 (Fc fusion) HGEGTFTSDLSIQLEEEAVQEFIEWLLATGPSSGAPPPSGGGGGGGSGGGGSGGGGSA[… human IgG4 Fc with changes …]GGGSGSAHPIPDSSPLLQFGGQVRQRYLYTDDACQTEAHLEIREDGTVGGAADQSPESLLQLKALKPGVIQILGVKTSRFLCQRPDGALYGSLHFDPEACSFRELLLEDGYNVYQSEAHGLPLHLPGCKSPHRDPAPRGPARFLPLPGLPPAPPEPPGILAPQPPDVGSSDPLSMVGSQGRSPSYAS	8.6	78.7	70.7	3.32	54.6

— patent US20230250147A1 (Sanofi, published 2023)
